Holding throughout (assay): biochemical
One assay addresses Histamine H1 receptor (Homo sapiens, UniProt P35367). The assay is classed as cell-based, CHO.
Another assay has as its target D(1B) dopamine receptor (Homo sapiens, UniProt P21918).
The target of a further assay is Histamine H3 receptor (Homo sapiens, UniProt Q9Y5N1). The format is cell-based, HEK293.
In the next assay the target is D(2) dopamine receptor (Homo sapiens, UniProt P14416). The assay is classed as cell-based, CHO.
Another assay deals with D(3) dopamine receptor (Homo sapiens, UniProt P35462).
D(3) dopamine receptor, sequence (P35462 whole entry): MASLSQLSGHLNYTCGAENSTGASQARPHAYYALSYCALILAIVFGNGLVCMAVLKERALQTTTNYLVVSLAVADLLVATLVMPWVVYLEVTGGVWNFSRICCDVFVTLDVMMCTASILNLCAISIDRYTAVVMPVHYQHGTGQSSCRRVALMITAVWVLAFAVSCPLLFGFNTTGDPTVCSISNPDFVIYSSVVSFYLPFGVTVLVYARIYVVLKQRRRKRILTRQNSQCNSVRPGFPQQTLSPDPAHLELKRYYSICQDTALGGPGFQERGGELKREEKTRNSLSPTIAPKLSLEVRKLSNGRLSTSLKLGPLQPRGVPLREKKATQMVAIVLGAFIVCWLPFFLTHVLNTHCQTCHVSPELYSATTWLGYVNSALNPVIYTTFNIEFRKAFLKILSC

SMILES strings stand for the structures. Bounds are passed on as bounds.

Histamine H1 receptor, sequence (P35367 whole entry): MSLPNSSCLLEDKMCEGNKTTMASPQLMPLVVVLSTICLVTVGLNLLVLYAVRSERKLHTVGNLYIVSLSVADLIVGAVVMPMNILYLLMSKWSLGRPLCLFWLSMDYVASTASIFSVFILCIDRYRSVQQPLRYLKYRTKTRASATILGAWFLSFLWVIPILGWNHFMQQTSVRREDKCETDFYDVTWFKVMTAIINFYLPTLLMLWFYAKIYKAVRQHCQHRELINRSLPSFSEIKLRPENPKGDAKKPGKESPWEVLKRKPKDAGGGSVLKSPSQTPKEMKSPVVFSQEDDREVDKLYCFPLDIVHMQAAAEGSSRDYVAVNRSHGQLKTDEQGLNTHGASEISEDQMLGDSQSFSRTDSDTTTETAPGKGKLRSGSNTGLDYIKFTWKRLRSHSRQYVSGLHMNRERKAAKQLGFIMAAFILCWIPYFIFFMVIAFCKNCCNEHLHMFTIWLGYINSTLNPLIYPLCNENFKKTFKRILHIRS
Histamine H3 receptor, sequence (Q9Y5N1 whole entry): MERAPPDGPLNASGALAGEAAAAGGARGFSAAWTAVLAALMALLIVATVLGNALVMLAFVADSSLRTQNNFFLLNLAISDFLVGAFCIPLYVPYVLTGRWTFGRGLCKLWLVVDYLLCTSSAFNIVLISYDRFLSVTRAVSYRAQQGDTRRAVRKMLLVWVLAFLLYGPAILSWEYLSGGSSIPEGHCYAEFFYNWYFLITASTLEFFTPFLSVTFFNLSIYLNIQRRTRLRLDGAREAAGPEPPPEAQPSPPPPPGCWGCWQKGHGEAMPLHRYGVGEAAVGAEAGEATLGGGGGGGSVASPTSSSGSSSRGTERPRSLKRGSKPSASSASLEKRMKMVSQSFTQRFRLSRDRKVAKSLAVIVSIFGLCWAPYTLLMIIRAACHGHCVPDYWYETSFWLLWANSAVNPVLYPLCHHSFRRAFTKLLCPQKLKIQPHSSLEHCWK
D(1B) dopamine receptor, sequence (P21918 whole entry): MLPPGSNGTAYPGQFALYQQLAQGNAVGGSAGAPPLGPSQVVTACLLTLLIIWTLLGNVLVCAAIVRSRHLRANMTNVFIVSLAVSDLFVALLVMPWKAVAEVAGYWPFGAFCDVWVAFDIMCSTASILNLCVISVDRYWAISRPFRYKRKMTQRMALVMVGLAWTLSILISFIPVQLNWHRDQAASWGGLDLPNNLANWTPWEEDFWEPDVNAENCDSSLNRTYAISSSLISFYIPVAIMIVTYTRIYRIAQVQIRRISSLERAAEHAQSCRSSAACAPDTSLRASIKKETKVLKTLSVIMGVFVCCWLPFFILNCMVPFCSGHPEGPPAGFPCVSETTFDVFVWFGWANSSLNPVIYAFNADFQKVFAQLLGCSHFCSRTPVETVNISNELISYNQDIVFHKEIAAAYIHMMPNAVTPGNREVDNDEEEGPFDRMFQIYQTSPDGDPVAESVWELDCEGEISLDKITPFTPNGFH
D(2) dopamine receptor, sequence (P14416 whole entry): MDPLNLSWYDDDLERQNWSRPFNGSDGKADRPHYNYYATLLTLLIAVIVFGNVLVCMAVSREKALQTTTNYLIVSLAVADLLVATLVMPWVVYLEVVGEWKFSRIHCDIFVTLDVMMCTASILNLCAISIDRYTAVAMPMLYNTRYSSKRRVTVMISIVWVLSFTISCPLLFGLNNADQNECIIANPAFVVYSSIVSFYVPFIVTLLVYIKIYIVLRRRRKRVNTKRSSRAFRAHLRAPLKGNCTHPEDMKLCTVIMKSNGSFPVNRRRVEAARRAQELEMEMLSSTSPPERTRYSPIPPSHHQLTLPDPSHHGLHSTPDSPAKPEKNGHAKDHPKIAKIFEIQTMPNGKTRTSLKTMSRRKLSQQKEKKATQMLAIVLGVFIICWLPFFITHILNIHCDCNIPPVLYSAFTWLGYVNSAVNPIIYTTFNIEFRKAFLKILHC

With `O=C(OCCN1CCN(CCCN2c3ccccc3Sc3ccc(C(F)(F)F)cc32)CC1)c1ccc(OCCCN2CCCCC2)cc1`, at Histamine H1 receptor, the affinity, expressed as Ki, was 390 nM. Still for that read-out and setting: with `CN(CCC=C1c2ccccc2CCc2ccccc21)C(=O)Cc1ccc(OCCCN2CCCCC2)cc1` the figure was 559 nM.

With `CN(CCC=C1c2ccccc2CCc2ccccc21)Cc1ccc(OCCCN2CCCCC2)cc1`, at Histamine H1 receptor, the inhibition constant Ki is 79 nM. Take `CN(CCCN1c2ccccc2Sc2ccc(Cl)cc21)Cc1ccc(OCCCN2CCCCC2)cc1`: the Ki at Histamine H1 receptor was 205 nM. Still for that read-out and setting: to `CN(CCC=C1c2ccccc2CCc2ccccc21)C(=O)c1ccc(OCCCN2CCCCC2)cc1` belongs 686 nM; to `Clc1ccc2c(c1)N=C(N1CCN(Cc3ccc(OCCCN4CCCCC4)cc3)CC1)c1ccccc1N2`, 190 nM; to `CN(CCCC12CCC(c3ccccc31)c1ccccc12)Cc1ccc(OCCCN2CCCCC2)cc1`, 40 nM. For the molecule `CN(CC/C=C1\c2ccccc2Sc2ccc(Cl)cc21)Cc1ccc(OCCCN2CCCCC2)cc1`, the Ki on Histamine H1 receptor amounted to 295 nM; on D(1B) dopamine receptor it was 297 nM. `CN(C)CC/C=C1/c2ccccc2Sc2ccc(Cl)cc21` [CHLORPROTHIXENE] gave an inhibitory constant (Ki) at Histamine H1 receptor of 3.75 nM. Regarding `CN1CCN(C2=Nc3cc(Cl)ccc3Nc3ccccc32)CC1` [CLOZAPINE], the Ki at Histamine H3 receptor is greater than 1000 nM. With `CNCCCC12CCC(c3ccccc31)c1ccccc12` [MAPROTILINE], the Ki on Histamine H3 receptor was greater than 1000 nM; at D(2) dopamine receptor it was 665 nM; at D(1B) dopamine receptor, 429 nM; at D(3) dopamine receptor, 504 nM.

The values above are taken from ChEMBL document CHEMBL1149085, “Potential utility of histamine H3 receptor antagonist pharmacophore in antipsychotics” (Bioorg Med Chem Lett, 2009).
